# In PubChem BioAssay AID485364 (National Center for Advancing Translational Sciences (NCATS), 2010):
# Values joined by “and” are separate entries in the source; they are usually repeats but may differ in a detail not shown here. Identical values can stand only once. Screen size: about 360,000 compounds; about 11,000 (3.1%) were called active. The shares of active, inactive and inconclusive entries below differ from those in the screen. Calls come from the whole dose curve; as a rule, active = well fitted inhibition curve with a large enough effect; inconclusive = small, poorly fitted or top-dose-only effect; inactive = no such curve, though single readings can be large or run the other way. No potency is given beside an inconclusive call; the fits are too rough.
# Target: Schistosoma mansoni thioredoxin glutathione reductase (TGR) (UniProt Q962Y6)
# Assay: qHTS Assay for the Inhibitors of Schistosoma Mansoni Peroxiredoxins; note: nearly all actives have a fitted effect of over 60% in size
# Settings: purified TGR, DTNB reduction, TNB absorbance 405 nm; activity change, negative = inhibition: at 114 µM (top of the series) unless noted
# Summary of the method: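 Kinetic colorimetric format: TGR-catalysed, NADPH-driven DTNB reduction monitored via TNB absorbance. Enzyme dispensed at 20 nM; compound exposure 15 min at room temperature before reaction start.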
# % is set by controls: 0 for no effect and ±100 for the full control effect; potency is the fitted concentration of half-maximal effect; tags give direction and shape of the fitted curve.
SMILES,Potency,"activity change, negative = inhibition"
COc1ccc(C(=O)COC(=O)CSCc2c(C)noc2C)cc1OC,"inconclusive [inhibitor, partial curve]",–
Cc1ccc(C(=O)COC(=O)c2n[nH]c(=O)c3ccccc23)cc1,"inconclusive [inhibitor, single point]",–
COc1ccc(C)c2sc(NC(=O)CCS(=O)(=O)c3ccccc3)nc12,active: 5.01 µM,–
Cc1c(C)n(-c2ccccc2)c2ncnc(NCCN(C)C)c12,–,inactive: -0.959%
COc1cccc(N2C(=O)/C(=C\c3cccs3)NC2=S)c1,"inconclusive [inhibitor, partial curve]",–
CCOC(=O)C(CC)N1CCN(Cc2ccc(F)cc2)C(=O)C1=O (centres undefined),–,inactive: 0.499%
CC1CC(C)(C)Nc2ccc(N=O)cc21 (centres undefined),active: 14.1 µM,–
Cc1ccc(CN2CC(C(=O)N3CCN(S(=O)(=O)c4ccccc4)CC3)CC2=O)cc1 (centres undefined),"inconclusive [inhibitor, partial curve]",–
COc1ccc(NC(=S)Nc2ncccc2C)c(OC)c1,"inconclusive [inhibitor, partial curve, poor fit]",–
Cc1cc(C(=O)CSc2nc3ccccc3c(=O)n2C)c(C)n1Cc1ccc2c(c1)OCO2,"inconclusive [inhibitor, partial curve]",–
O=C(CCc1nnc(Cc2c[nH]c3ccccc23)o1)NC1CCCC1,"inconclusive [inhibitor, single point]",–
O=C(CCc1ccc(S(=O)(=O)NC2CCCCC2)cc1)NCc1ccccn1,active: 35.5 µM,–
COC(=O)C1=C(C)NC(=S)NC1c1ccc(-c2cc(Cl)ccc2Cl)o1 (centres undefined),active: 12.6 µM,–
CC(=O)c1ccc(OC(=O)CCc2nc3ccccc3s2)cc1,"inconclusive [inhibitor, partial curve]",–
Cc1ccc(N2C(=O)CSC23C(=O)N(CC(=O)NCc2ccccc2)c2ccccc23)cc1 (centres undefined),–,inactive: -4.76%
CSc1ccc(/C=C(\NC(=O)c2ccccc2)C(=O)NN)cc1,–,inactive: 13.8%
Cn1c(=O)c(C#N)c(-c2ccc(F)cc2)c2cc(C(=O)c3cc(Cl)cc(Cl)c3O)cnc21,–,inactive: -2.64%
O=C(C1CCC1)N1CCN(S(=O)(=O)c2ccc(F)cc2)CC1,"inconclusive [inhibitor, partial curve]",–
Cc1ccc(NC(=O)CSc2nc(N)cc(N)n2)cc1S(=O)(=O)N1CCOCC1,–,inactive: 4.69%
CCCNC(=O)c1c(CSc2ccccc2)noc1C(=O)NCc1ccccc1,–,inactive: 12.6%
O=C(Oc1c(Cl)cc(Cl)c2cccnc12)c1cccs1,"inconclusive [inhibitor, partial curve]",–
CCOc1cccc(/C(O)=C2/C(=O)C(=O)N(Cc3ccco3)C2c2ccncc2)c1 (centres undefined),"inconclusive [inhibitor, partial curve, poor fit]",–
Cc1ccc(-c2n[nH]c(=S)n2/N=C/C=C\c2ccccc2[N+](=O)[O-])cc1,–,inactive: -15.9%
NC(=O)c1ccccc1N/C=C/C(=O)c1ccccc1,"inconclusive [inhibitor, single point]",–
CC1CCCCC1NC(=O)NC(=O)CCl (centres undefined),active: 14.1 µM,–

SMILES,Potency,"activity change, negative = inhibition"
O=C(Cn1c[n+](CC(=O)c2ccc([N+](=O)[O-])cc2)cn1)c1ccc([N+](=O)[O-])cc1,active: 10 µM and active: 44.7 µM,–
Cc1ccc2c(C)c(C(=O)N3CCN(c4ncccn4)CC3)oc2c1C,–,inactive: 0.065%
CCc1ccc2nc(N(CCN(C)C)C(=O)c3ccc4ncsc4c3)sc2c1,"inconclusive [inhibitor, full curve, poor fit]",–
COc1ccccc1NC(=O)CCS(=O)(=O)c1ccc2c(c1)oc(=O)n2C,"inconclusive [inhibitor, partial curve, poor fit]",–
CCCc1cc(=O)[nH]c(SCCOc2ccc(Cl)cc2)n1,"inconclusive [inhibitor, full curve, poor fit]",–
O=C(NCc1ccncc1)c1cccc(Cn2cc(Br)cn2)c1,"inconclusive [inhibitor, single point]",–
COC(=O)c1c(NC(=O)C2c3ccccc3Oc3ccccc32)sc2c1CCC(C(C)(C)C)C2 (centres undefined),–,inactive: 0.0298%
CCN1CCN(C2=NC(=O)/C(=C/c3ccc(C)o3)S2)CC1,"inconclusive [inhibitor, partial curve]",–
CCCc1[nH]c(=O)c(C#N)c2c1COC(C)(C)C2,–,inactive: 2.37%
COc1cccc(C2c3[nH]c4ccccc4c3CCN2Cc2cccn2-c2ncccn2)c1 (centres undefined),"inconclusive [inhibitor, single point]",–
CNc1nnc(Sc2ncccc2[N+](=O)[O-])s1,"inconclusive [inhibitor, partial curve]",–
COC(=O)c1ccc(C(=O)N2CCCC(CNC(=O)c3ccc(F)cc3)C2)cc1 (centres undefined),"inconclusive [inhibitor, single point]",–
CCC(NC(=O)c1cc(COc2cc(C)c(Cl)c(C)c2)on1)c1ccncc1 (centres undefined),–,inactive: -0.272%
COc1ccc(OC)c(C2C(C(=O)c3sc(C)nc3C)=C(O)C(=O)N2CCN2CCOCC2)c1 (centres undefined),"inconclusive [inhibitor, single point]",–
CC(=O)C(C(C)=O)c1cc(NS(=O)(=O)c2ccccc2)ccc1NS(=O)(=O)c1ccccc1,"inconclusive [inhibitor, partial curve]",–
Cc1ccc(S(=O)(=O)NNC(=O)c2csnn2)cc1,"inconclusive [inhibitor, partial curve]",–
O=C(Nc1sc2c(c1C(=O)O)CCCC2)c1cccs1,–,inactive: -3.11%
O=C(NCCN1CCOCC1)c1cc(-c2ccc(Cl)cc2Cl)on1,–,inactive: -22%
CC(/C=N/n1c(-c2ccco2)n[nH]c1=S)=C\c1ccco1,"inconclusive [inhibitor, partial curve]",–
COc1ccc(S(=O)(=O)Cc2ccc(C(=O)N3CCN(c4cccc(C)c4C)CC3)o2)cc1,"inconclusive [inhibitor, partial curve]",–
CC(/C=C/c1ccccc1)=N\NC(=O)c1cc(C)[nH]n1,–,inactive: -0.911%
COc1cccc(NC(=O)CN(C)C(=O)c2c(C)nn(CC(C)C)c2Cl)c1,"inconclusive [inhibitor, single point]",–
Cc1cc(C)c(S(=O)(=O)N(C)CC(=O)NCCCn2ccnc2)c(C)c1,–,inactive: 1.93%
COc1ccc(CN2CCNC(=O)C2CC(=O)NCCc2nc(C)c3c(n2)CCC3)cc1C (centres undefined),"inconclusive [inhibitor, partial curve]",–
CCCCn1c(N)c(N(CC(C)C)C(=O)c2ccc(-c3ccc(Cl)cc3)o2)c(=O)[nH]c1=O,"inconclusive [inhibitor, partial curve]",–

SMILES,Potency,"activity change, negative = inhibition"
COc1cccc(OC(=O)CSc2nnc(-c3cccs3)o2)c1,–,inactive: -2.26%
Cc1nc2ccccn2c1C(=O)NC1CCCC1,–,inactive: 6.23%
Cc1ccc(NS(=O)(=O)c2ccc(OCC(=O)NCc3ccco3)cc2)cc1,"inconclusive [inhibitor, partial curve]",–
CN(Cc1ccccc1)C(=O)c1ccc([N+](=O)[O-])o1,active: 39.8 µM,–
COc1ccc(C(=O)NC(=S)Nc2cccnc2)cc1Cl,"inconclusive [inhibitor, full curve]",–
OC(c1ccccc1)(c1ccc(Cl)cc1)C1CN2CCC1CC2 (centres undefined),–,inactive: 0.126%
CC[C@H](C)[C@@H](C(=O)NCCCCCCCCCCC(=O)N1CCNCC1)n1cc(CCCCN=C(N)N)nn1,"inconclusive [inhibitor, full curve]",–
NS(=O)(=O)c1ccc(-c2ccc(/C=C3\NC(=S)NC3=O)o2)cc1,active: 8.91 µM,–
O=C(/C=C/c1cccnc1)c1ccc(F)c(F)c1,active: 28.2 µM,–
O=C(O)CCc1ccc(-c2ccc(F)cc2)n1CC(=O)O,"inconclusive [inhibitor, partial curve]",–
CCC(CC)C1C(C#N)=C(N)Oc2c1c(=O)oc1ccccc21 (centres undefined),–,inactive: -10.1%
CCCCc1cc2c(cn1)=C(OC(=O)c1cnc3ccccc3n1)C(C)(OC(=O)CC)C(=O)C=2 (centres undefined),"inconclusive [inhibitor, full curve]",–
Cc1cccc(-n2ncc(Cl)c(Cl)c2=O)c1,active: 28.2 µM,–
C=CCn1c(O)c(CN2CCOCC2)c(C)c(C#N)c1=O,active: 39.8 µM,–
COc1ccc(-n2ncc(C(=O)N3CCN(C(=O)c4ccco4)CC3)c2C2CCN(C(=O)OC(C)(C)C)CC2)cc1,–,inactive: 3.68%
CCCCN(C)CCNC(=O)c1ccc(Cn2c(=S)[nH]c3ccc(Br)cc3c2=O)cc1,"inconclusive [inhibitor, partial curve]",–
CCOC(=O)c1ccc(NCc2ccc(N(C)C)cc2)cc1,–,inactive: 0.728%
CSCC(=O)N1CCC(n2nccc2NC(=O)c2ccc3c(c2)OCO3)CC1,–,inactive: -11%
CCCC1Cc2nc(Cl)c(C#N)cc2CO1 (centres undefined),active: 39.8 µM,–
COC(=O)c1c(C)oc2c1cc(NS(=O)(=O)c1ccc(C(=O)O)cc1)c1ccccc12,active: 50.1 µM,–
CCOc1ccc(NC(=S)NC(=O)c2cnn(CC)c2)c([N+](=O)[O-])c1,–,inactive: -13.8%
NC(=O)C1CCN(C(=O)c2cc3n(n2)C(C(F)(F)F)CC(c2ccco2)N3)CC1 (centres undefined),"inconclusive [inhibitor, partial curve]",–
CC(NC(=O)/C(=C\c1ccco1)NC(=O)c1ccccc1Br)C(=O)O (centres undefined),"inconclusive [inhibitor, partial curve]",–
O=C(CN1C(=O)C2C3C=CC(C3)C2C1=O)NCCN1CCCc2ccccc21 (centres undefined),active: 50.1 µM,–
